Source: the supplement of paper PMC3334620
Over roughly 33,000 sequences, “E-score (-0.5 to 0.5)” has its median near -0.056; the highest 2% begin near 0.38. Some of the results follow.

These sequences were tested against Stb4 (UniProt P50104) (assay: PBM E-score (8-mer binding enrichment) (E-score (-0.5 to 0.5)); higher = stronger / more preferred TF binding; most listed sequences are background and not binding sites). Details: protein concentration: 200 nM; construct: GST-DNA-binding domain.
Outline: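 GST-tagged yeast TFs (full-length or DNA-binding domain) were made by PURExpress in vitro transcription/translation and applied at about 100-200 nM to universal all-10-mer Agilent arrays. The arrays were made double-stranded by primer extension, on fresh or once-stripped slides. Bound protein was detected with fluorescent anti-GST, and scans were normalised with masliner. Each ungapped eight-base word, pooled with its reverse complement, received an E-score (modified Wilcoxon-Mann-Whitney statistic) from the Universal PBM Analysis Suite.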

First: CATAACCG
Second: CGCCTCGA
The “PBM E-score” value of the first is higher: 0.251 for the first, -0.14 for the second.

Compared with ATCCTCAG, AACAAAGC is higher in “PBM E-score” value: -0.192 for the first, -0.0234 for the second.

First: CCGCCGCC
Second: AATTGGAG
The “PBM E-score” value of the first is higher: 0.157 for the first, -0.273 for the second.

Compared with GCAAGCAA, CATGCGAC is higher in “PBM E-score” value: -0.128 for the first, -0.126 for the second.

First: CAAATTTA
Second: ACTCGTCC
The “PBM E-score” value of the first is lower: -0.0517 for the first, -0.00859 for the second.

Going from GAGCACAA to GCACTGGC, the “PBM E-score” value falls from 0.118 to -0.224.

Compared with AACGGTAG, ATGCTTAC is lower in “PBM E-score” value: -0.0634 for the first, -0.188 for the second.

First: GATCGTGC
Second: CTTCGAAG
The “PBM E-score” value of the first is higher: -0.0855 for the first, -0.305 for the second.

Going from GAAAAGCA to CACCAGAC, the “PBM E-score” value rises from -0.0274 to 0.02.

First: ATACCCAC
Second: ATTCGACG
The “PBM E-score” value of the first is higher: 0.102 for the first, -0.187 for the second.

Going from AGTGTGGA to TATTCAAA, the “PBM E-score” value falls from -0.0148 to -0.0679.

Going from GACGAAAC to ACATTCCC, the “PBM E-score” value rises from -0.0204 to 0.13.

First: GCGCGCGA
Second: ACAGATGT
The “PBM E-score” value of the first is higher: 0.0498 for the first, -0.0573 for the second.

Compared with AGTCGACT, ACTTGGAG is higher in “PBM E-score” value: -0.232 for the first, -0.16 for the second.

Going from AGGTTTGC to ACTATGGC, the “PBM E-score” value rises from -0.246 to -0.151.

Compared with GGTGCGCA, AAGCGGTA is lower in “PBM E-score” value: 0.139 for the first, 0.0224 for the second.

First: ACGCGAGG
Second: CCTCTATC
The “PBM E-score” value of the first is lower: -0.191 for the first, -0.0792 for the second.

Going from GCTTCACC to CTCATCAG, the “PBM E-score” value falls from -0.0947 to -0.112.

First: TCTCCCAA
Second: ATGTTTAG
The “PBM E-score” value of the first is lower: -0.163 for the first, -0.0778 for the second.

First: AGGATTTA
Second: AGGACCGA
The “PBM E-score” value of the first is lower: -0.00207 for the first, 0.132 for the second.

Compared with CAGCGTGA, AGTGTCAT is higher in “PBM E-score” value: -0.26 for the first, -0.0875 for the second.

First: AAGATAAA
Second: AAGGGCCT
The “PBM E-score” value of the first is higher: -0.0146 for the first, -0.119 for the second.

Compared with GAAACCGC, AATGTTGG is lower in “PBM E-score” value: 0.166 for the first, -0.165 for the second.

First: ATTTAACG
Second: CGTAGCCC
The “PBM E-score” value of the first is higher: 0.101 for the first, 0.0233 for the second.

Going from ACGTATCT to CCAATGCC, the “PBM E-score” value rises from -0.176 to 0.0513.

First: ATCGATTA
Second: GCACTACA
The “PBM E-score” value of the first is higher: -0.0251 for the first, -0.187 for the second.

First: ATGACACC
Second: ACTCCTAG
The “PBM E-score” value of the first is lower: -0.176 for the first, -0.16 for the second.

Compared with GGGGCTGA, TCGGAACA is higher in “PBM E-score” value: -0.302 for the first, 0.479 for the second.

Compared with AATGGACG, GAGCGTCC is higher in “PBM E-score” value: -0.155 for the first, -0.111 for the second.

First: AGAGTCGC
Second: CGGTACAC
The “PBM E-score” value of the first is lower: -0.1 for the first, 0.103 for the second.

Compared with GACTGATA, AGCTCCGC is higher in “PBM E-score” value: 0.0385 for the first, 0.121 for the second.

First: AACAAGAC
Second: ACTAACGC
The “PBM E-score” value of the first is higher: -0.0289 for the first, -0.139 for the second.

First: ACTGAACC
Second: CTGATGTC
The “PBM E-score” value of the first is higher: 0.0702 for the first, 0.0602 for the second.

First: GGGCATCA
Second: AACGGCGA
The “PBM E-score” value of the first is lower: -0.088 for the first, 0.0859 for the second.

Compared with AATATCTG, TAGTTCCA is lower in “PBM E-score” value: 0.0322 for the first, -0.142 for the second.

First: CACTGGGA
Second: AATGGTGC
The “PBM E-score” value of the first is lower: -0.284 for the first, 0.115 for the second.

First: AGGGGGGA
Second: ATTCTTCA
The “PBM E-score” value of the first is lower: -0.258 for the first, -0.173 for the second.

Compared with CCTGGCAC, AATTAGTG is lower in “PBM E-score” value: -0.00805 for the first, -0.105 for the second.

Compared with CTATTAAA, TCGTTCAA is lower in “PBM E-score” value: -0.0169 for the first, -0.119 for the second.

Compared with GAATCCCA, CAGGGCCG is higher in “PBM E-score” value: -0.105 for the first, 0.0628 for the second.

First: CGGAGTCA
Second: AGTATAAC
The “PBM E-score” value of the first is higher: 0.254 for the first, -0.0469 for the second.

Compared with GGTTAACA, CCCGGCTA is higher in “PBM E-score” value: 0.149 for the first, 0.329 for the second.

Compared with CAACCCTC, ATTGCTGC is higher in “PBM E-score” value: -0.0946 for the first, -0.0345 for the second.

First: ATCTTAAC
Second: CAAAAAGC
The “PBM E-score” value of the first is lower: -0.187 for the first, 0.0643 for the second.

Going from CGCGCGGC to AACAATTC, the “PBM E-score” value falls from 0.272 to -0.059.

Going from AGGTTTAG to ATTGTCCA, the “PBM E-score” value rises from -0.0776 to -0.0679.

Compared with CAGGTCTC, TATCCCGA is higher in “PBM E-score” value: -0.181 for the first, 0.398 for the second.

First: ATCATAAC
Second: GGATCTTA
The “PBM E-score” value of the first is lower: 0.113 for the first, 0.175 for the second.

Going from CCAGTAGA to CTAGAAGC, the “PBM E-score” value rises from -0.308 to -0.122.

Compared with AGCATTCG, ACCTTAGA is lower in “PBM E-score” value: 0.0196 for the first, 0.0092 for the second.

First: AGAAGCTG
Second: AGGATGCC
The “PBM E-score” value of the first is lower: -0.0865 for the first, 0.0566 for the second.

First: ACAGATTA
Second: AGTAGAAC
The “PBM E-score” value of the first is higher: -0.0875 for the first, -0.152 for the second.
